According to publication PMC4336329 (PLoS ONE, 2015):
The whole screen tested about 310,000 compounds, of which about 2,200 (0.71%) showed an effect of 50% or more. The effect is printed as a negative number. The list shows a part of the results.

Molecular target: human ether-à-go-go-related gene (hERG) potassium channel (human, UniProt Q12809)
Experiment: primary screen, population patch clamp on CHO cells stably expressing hERG

Chain of human ether-à-go-go-related gene (hERG) potassium channel (Q12809 whole entry, looked up): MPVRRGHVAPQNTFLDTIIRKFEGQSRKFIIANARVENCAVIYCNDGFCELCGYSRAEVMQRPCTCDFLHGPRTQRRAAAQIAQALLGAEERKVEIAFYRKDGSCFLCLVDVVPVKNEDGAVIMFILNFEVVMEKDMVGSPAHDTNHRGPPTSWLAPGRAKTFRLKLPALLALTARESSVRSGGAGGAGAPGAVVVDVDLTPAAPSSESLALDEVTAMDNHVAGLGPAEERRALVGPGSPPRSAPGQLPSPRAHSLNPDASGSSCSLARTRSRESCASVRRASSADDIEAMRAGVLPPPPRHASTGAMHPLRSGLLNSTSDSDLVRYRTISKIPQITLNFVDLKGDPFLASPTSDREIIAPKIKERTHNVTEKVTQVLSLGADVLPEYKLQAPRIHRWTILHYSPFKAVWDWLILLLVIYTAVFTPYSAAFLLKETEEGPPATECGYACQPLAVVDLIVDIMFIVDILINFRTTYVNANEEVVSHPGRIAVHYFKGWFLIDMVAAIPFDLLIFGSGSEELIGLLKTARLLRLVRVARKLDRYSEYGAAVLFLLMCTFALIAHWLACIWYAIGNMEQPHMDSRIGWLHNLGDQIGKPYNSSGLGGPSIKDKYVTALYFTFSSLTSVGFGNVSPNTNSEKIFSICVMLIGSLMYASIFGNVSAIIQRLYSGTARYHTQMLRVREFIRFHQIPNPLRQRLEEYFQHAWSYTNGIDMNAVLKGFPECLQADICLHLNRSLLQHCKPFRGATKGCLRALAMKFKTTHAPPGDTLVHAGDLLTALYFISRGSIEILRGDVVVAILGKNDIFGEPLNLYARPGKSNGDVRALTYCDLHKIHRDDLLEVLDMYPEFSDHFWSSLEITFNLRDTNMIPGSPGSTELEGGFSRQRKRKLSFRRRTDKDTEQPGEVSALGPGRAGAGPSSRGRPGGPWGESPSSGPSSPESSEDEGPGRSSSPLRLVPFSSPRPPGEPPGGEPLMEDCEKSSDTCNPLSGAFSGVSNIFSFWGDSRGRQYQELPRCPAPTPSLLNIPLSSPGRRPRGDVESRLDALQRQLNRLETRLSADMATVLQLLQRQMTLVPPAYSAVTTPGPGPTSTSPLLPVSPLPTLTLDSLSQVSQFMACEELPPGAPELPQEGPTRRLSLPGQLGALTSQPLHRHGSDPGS

First: Cc1ccc(C(=O)NCC(C)NC(=O)c2ccc(C)c([N+](=O)[O-])c2)cc1[N+](=O)[O-] (stereo not shown)
Second: NC(=O)CC(NC(=O)Cc1ccc(Br)cc1)c1ccc(NCc2cc(F)ccc2F)c([N+](=O)[O-])c1 (stereo not shown)
The “hERG current change (%, negative = inhibition) at 1uM” value of the first is higher: 12.4% for the first, -0.104% for the second.

First: CC(C)(C)n1nc2c(c1NC(=O)c1cccc(Cl)c1)CS(=O)(=O)C2
Second: CSc1n[nH]c(=O)n1-c1cccc(Cl)c1
The “hERG current change (%, negative = inhibition) at 1uM” value of the first is lower: 0.55% for the first, 6.51% for the second.

Going from `O=C(N/N=C/c1ccc([N+](=O)[O-])o1)c1cc2ccccc2o1` to `COc1ccc(S(N)(=O)=O)cc1C(=O)NC1CCCc2ccccc21` (stereo not shown), the “hERG current change (%, negative = inhibition) at 1uM” value rises from -7.07% to 12.3%.

Going from `OCC1(CCOc2ccccc2)CCN(Cc2cn[nH]c2-c2ccccc2)CC1` to `COc1ccccc1C(=O)n1nc(-c2ccccc2)nc1N`, the “hERG current change (%, negative = inhibition) at 1uM” value rises from -68.3% to 10.2%.

First: COc1ccc(C)cc1-n1nnnc1SCc1cc(=O)n2cc(C)ccc2n1
Second: CCCOc1ccc(-c2nn(-c3ccccc3)cc2/C=C2\SC(N)=NC2=O)cc1C
The “hERG current change (%, negative = inhibition) at 1uM” value of the first is lower: -8.45% for the first, 8.62% for the second.

Compared with `O=C(Nc1nc2ccccc2[nH]1)c1ccccc1`, `Cc1ccccc1NC(=O)Cc1nc(COC(=O)c2ccccn2)cs1` is lower in “hERG current change (%, negative = inhibition) at 1uM” value: 11% for the first, -4.6% for the second.

First: S=c1[nH]nc(-c2cccnc2)n1/N=C/c1ccco1
Second: O=C(CCCSc1nc(-c2ccco2)cc(C(F)(F)F)n1)NCc1cccs1
The “hERG current change (%, negative = inhibition) at 1uM” value of the first is lower: 9.66% for the first, 10.8% for the second.

Compared with `Cc1ccc(NC(=O)CSCC#N)cc1Cl`, `COC(=O)Cc1ccc(O)c(N)c1` is higher in “hERG current change (%, negative = inhibition) at 1uM” value: 2.92% for the first, 11.4% for the second.

Going from `CC(C)c1nc(CNC(=O)CCc2nnc(-c3ccsc3)o2)cs1` to `COc1cc(C(=O)NCC(c2cccs2)N(C)C)cc(Cl)c1OC(C)C` (stereo not shown), the “hERG current change (%, negative = inhibition) at 1uM” value rises from 0.865% to 4.47%.

Compared with `Cc1c(C2=CCN(S(=O)(=O)c3ccc(Br)cc3)CC2)c2ccccc2n1C`, `CCOc1ccc(NC(=O)c2ccc(S(=O)(=O)N3CCOCC3)cc2)cc1` is higher in “hERG current change (%, negative = inhibition) at 1uM” value: 11.9% for the first, 18.4% for the second.

First: CC(C)(C)Nc1nc(Oc2ccc(=O)[nH]n2)nc(N2CCOCC2)n1
Second: Cc1cccc(OCC(=O)Nc2nnc(S(=O)(=O)N3CCCCC3)s2)c1
The “hERG current change (%, negative = inhibition) at 1uM” value of the first is higher: 7.22% for the first, 2% for the second.

Going from `COC(=O)Cn1cc(C#N)c2ccccc21` to `CCOc1ccc(CNC(=O)CCc2cn(Cc3ccccc3)c3ccccc23)cc1`, the “hERG current change (%, negative = inhibition) at 1uM” value falls from -0.17% to -1.72%.

First: CC1CN(C(=O)C2(C)CC2(Cl)Cl)CC(C)O1 (stereo not shown)
Second: CC(C)CCNC(=O)C1CC(=O)N(C2CCCC2)C1 (stereo not shown)
The “hERG current change (%, negative = inhibition) at 1uM” value of the first is higher: -0.814% for the first, -3.15% for the second.

Going from `CCOc1cccc(-c2c(C(=O)N/N=C/c3ccsc3)nnn2-c2nonc2N)c1` to `COc1cccc(-c2nc(CS(=O)(=O)CC(=O)NCC(C)c3ccccc3)c(C)o2)c1` (stereo not shown), the “hERG current change (%, negative = inhibition) at 1uM” value falls from 11.5% to -2.01%.

First: COc1cc(NC(=O)c2cncc(-c3ccc(C#N)cc3)c2)cc(C(=O)Nc2cccc(C(F)(F)F)c2)c1
Second: COc1ccc(-c2c(C#Cc3ccsc3)c3cc(-c4ccc5[nH]ccc5c4)ccc3n2C)cc1
The “hERG current change (%, negative = inhibition) at 1uM” value of the first is lower: 7.28% for the first, 14.9% for the second.

Going from `O=C(CN1CCCC1=O)NC1CCCc2c1cnn2-c1cc(F)cc(F)c1` (stereo not shown) to `Cc1noc(C)c1S(=O)(=O)N1CCC(C(=O)N2CCN(c3ccc(F)cc3)CC2)CC1`, the “hERG current change (%, negative = inhibition) at 1uM” value falls from 23.4% to -8.56%.

Going from `COCCN(CC(=O)Nc1cccc(C)c1C)C(=O)Cc1sc(C)nc1-c1ccc(F)cc1` to `CS(=O)(=O)c1ccc2nc(NC(=O)Nc3ccccc3F)sc2c1`, the “hERG current change (%, negative = inhibition) at 1uM” value rises from 13.3% to 20.8%.

First: COCCn1c(NC(=S)NC(=O)C23CC4CC(CC(C4)C2)C3)cc(=O)[nH]c1=O
Second: Cc1cc(NC2C3CC4CC(C3)CC2C4)n2nnnc2n1 (stereo not shown)
The “hERG current change (%, negative = inhibition) at 1uM” value of the first is lower: 8.98% for the first, 12% for the second.

Compared with `COc1ccc(CN2CCNC(=O)C2CC(=O)N(C)Cc2ccon2)cc1OC` (stereo not shown), `C=CCN(CC=C)C(=O)c1ccc2nc(Cc3ccc(OC)c(OC)c3)oc2c1` is higher in “hERG current change (%, negative = inhibition) at 1uM” value: 4.57% for the first, 15.1% for the second.

Going from `Cc1ccc(C(=O)C(C)OC(=O)CN2C(=O)NC3(CCCC3)C2=O)cc1` (stereo not shown) to `Cc1ccc(NC(=O)CC2SC(=O)NC2=O)cc1` (stereo not shown), the “hERG current change (%, negative = inhibition) at 1uM” value falls from 16% to 8.89%.

Going from `Cc1ccc(N(C(=O)c2csnn2)C(C(=O)NC(C)(C)C)c2cccnc2)cc1C` (stereo not shown) to `COc1cccc(CNc2ccccn2)c1O`, the “hERG current change (%, negative = inhibition) at 1uM” value rises from 5.96% to 13.5%.

Compared with `COc1cc2c(cc1OC)CN(C(=O)c1cccc(S(=O)(=O)N(C)C)c1)CC2`, `COc1ccc(N2CCN(C(=O)COC(=O)CCS(=O)(=O)c3ccc(C)cc3)CC2)cc1` is higher in “hERG current change (%, negative = inhibition) at 1uM” value: 3.68% for the first, 5.98% for the second.

Compared with `Cc1ccc(C)c(C(C)NC(=S)NC2CCCCC2)c1` (stereo not shown), `Cc1ccnc(NC(=O)Nc2ccc3c(c2)OCO3)c1` is higher in “hERG current change (%, negative = inhibition) at 1uM” value: 6.88% for the first, 16.4% for the second.

Compared with `COc1ccc(NC(=O)CN(c2ccc([N+](=O)[O-])cc2)S(=O)(=O)c2ccccc2)cc1`, `O=C(O)c1ccc2c(c1)C(=O)N(c1ccc(OCc3ccccc3)cc1)C2=O` is higher in “hERG current change (%, negative = inhibition) at 1uM” value: 9.36% for the first, 17.1% for the second.

First: COc1cc(Br)cc(/C=N/c2ncn[nH]2)c1O
Second: CC(C)OC(=O)c1nn2c(C(F)(F)F)cc(-c3ccc(Br)o3)nc2c1Br
The “hERG current change (%, negative = inhibition) at 1uM” value of the first is higher: 15.7% for the first, 9.7% for the second.

Compared with `CS(=O)(=O)c1nc(S(=O)(=O)c2ccc(Cl)cc2)c(N2CCC3(CC2)OCCO3)s1`, `CC1CCN(C(=O)c2cc(Cl)ccc2NC(=O)c2ccco2)CC1` is higher in “hERG current change (%, negative = inhibition) at 1uM” value: 6.41% for the first, 19.5% for the second.

Compared with `CCCCN1C(=O)C(O)(CC(=O)c2ccccc2OC)c2ccccc21` (stereo not shown), `CCCCN(C)C1=Nc2cccc3cccc1c23` is lower in “hERG current change (%, negative = inhibition) at 1uM” value: 2.21% for the first, -54.9% for the second.

`NC(=O)CC(NC(=O)Cc1cccc2ccccc12)c1ccc(NCc2ccc(F)c(F)c2)c([N+](=O)[O-])c1` (stereo not shown) was tested, and the “hERG current change (%, negative = inhibition) at 1uM” value was 0.487%.
